Over roughly 33,000 sequences, “E-score (-0.5 to 0.5)” has its median near -0.021; the highest 2% begin near 0.32. Some of the results follow.

The experiment concerns the target T1, Zap1 (UniProt P47043).
T1 sequence: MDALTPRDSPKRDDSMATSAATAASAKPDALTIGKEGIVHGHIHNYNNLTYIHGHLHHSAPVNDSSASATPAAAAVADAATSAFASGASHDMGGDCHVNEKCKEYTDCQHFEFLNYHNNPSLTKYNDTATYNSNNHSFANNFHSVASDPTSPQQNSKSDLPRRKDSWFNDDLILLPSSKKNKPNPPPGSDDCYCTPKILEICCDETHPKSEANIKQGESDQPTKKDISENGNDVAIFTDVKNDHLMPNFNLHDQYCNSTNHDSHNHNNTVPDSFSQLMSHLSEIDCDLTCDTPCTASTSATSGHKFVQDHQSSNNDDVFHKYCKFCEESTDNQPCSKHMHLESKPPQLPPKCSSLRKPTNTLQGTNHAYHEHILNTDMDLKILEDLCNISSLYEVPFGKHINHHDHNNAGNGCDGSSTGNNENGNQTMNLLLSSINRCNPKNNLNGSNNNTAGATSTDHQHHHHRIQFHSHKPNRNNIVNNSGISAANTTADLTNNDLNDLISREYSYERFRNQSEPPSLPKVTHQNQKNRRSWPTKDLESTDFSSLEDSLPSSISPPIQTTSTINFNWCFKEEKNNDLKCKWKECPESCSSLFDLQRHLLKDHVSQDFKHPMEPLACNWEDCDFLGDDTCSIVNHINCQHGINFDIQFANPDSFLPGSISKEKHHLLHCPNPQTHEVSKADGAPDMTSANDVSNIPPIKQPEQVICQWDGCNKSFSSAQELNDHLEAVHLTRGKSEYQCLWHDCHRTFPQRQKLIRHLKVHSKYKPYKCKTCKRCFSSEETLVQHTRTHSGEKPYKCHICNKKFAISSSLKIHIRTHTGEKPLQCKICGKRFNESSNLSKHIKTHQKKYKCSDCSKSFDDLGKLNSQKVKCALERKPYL
The experiment can be described thus: PBM E-score (8-mer binding enrichment) (E-score (-0.5 to 0.5)); higher = stronger / more preferred TF binding; most listed sequences are background and not binding sites. The conditions noted are these: protein concentration: 200 nM; construct: GST-full length. The procedure, abridged:
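Full-length yeast transcription factors or their DNA-binding domains, GST-tagged and expressed with PURExpress, were applied at about 100-200 nM to universal all-10-mer Agilent arrays. These arrays had been made double-stranded by primer extension on fresh or once-stripped slides. Detection used fluorescent anti-GST, normalisation used masliner, and E-scores for ungapped eight-base words pooled with reverse complements came from the Universal PBM Analysis Suite.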
GGCACTAA: the “PBM E-score” value is -0.0314.
The same measure for AGGATGAT: -0.152; for ACCGGATG: 0.0538.
The same measure for GGCTCAGA: -0.101; for GGCATCCC: -0.338.
The same measure for CGACGCGA: -0.0454; for CATCCAGA: -0.15.
Turning to ACTAGCAA, the “PBM E-score” value was -0.144.
The same measure for CCACACAA: 0.104; for CGTGGTGA: -0.142; for CGGCGCGA: 0.0413.
ACCCGATA: the “PBM E-score” value came out at 0.219.
The same measure for AGCCCACT: -0.264; for CTTGTAGC: 0.014; for ACGCGGAC: -0.0389.
Regarding GCTGGTAC, the “PBM E-score” value was 0.118.
The same measure for CCACGCCA: -0.0164.
For AGCCCCCT, the “PBM E-score” value is -0.406.
Regarding GTCGTAGA, the “PBM E-score” value is -0.199.
As to ACGCAGTA, the “PBM E-score” value is -0.11.
The same measure for CCGTGAGA: -0.0689.
With CTCTGCTA, the “PBM E-score” value was -0.252.
Regarding GGATGTCA, the “PBM E-score” value is 0.144.
For the sequence ATCACTGG, the “PBM E-score” value turned out to be 0.0331.
As for CACGTTTC, the “PBM E-score” value is -0.207.
In the case of ATGCTCAA, the “PBM E-score” value is -0.229.
The same measure for ATCTTGCG: -0.0918; for GGACACAA: 0.23; for CAGTCGCG: -0.196.
The same measure for CATCATAG: -0.0242; for ATAGCGGG: -0.129; for CCTACCAC: 0.0696.
The same measure for CCCTATCG: 0.0222.
For ATTCCGAA, the “PBM E-score” value was found to be 0.111.
The same measure for ATGGGAAC: 0.0678.
Turning to ACTTAGTC, the “PBM E-score” value was -0.299.
For GCATCTAA, the “PBM E-score” value is -0.0494.
Take CGTCCTTC: the “PBM E-score” value is -0.165.
As to TCTAGCAA, the “PBM E-score” value came to 0.00871.
The same measure for CGTATAGA: -0.108; for AGAAAGGC: -0.101.
Turning to CACGGAAC, the “PBM E-score” value is -0.0674.
The same measure for ACTGTAAG: 0.205; for ACTTAAAT: 0.0411; for TATAGTGA: -0.0293.
The same measure for CGCCCACC: 0.0732; for GTGTTAAC: 0.0909.
The same measure for TCGTAGCA: -0.0581; for GGAGAGAC: -0.0329; for AGCTTGTA: 0.01.
Regarding GCCCTACA, the “PBM E-score” value is -0.0544.
Turning to ACTTAGAC, the “PBM E-score” value was -0.0119.
The same measure for ATAAAGAT: 0.00332; for AGGCGGGA: -0.238; for CAAGCGTC: -0.108.
Consider ATGGCTAC, for which the “PBM E-score” value came to 0.11.
The same measure for CATGCGGG: -0.0115; for GAGACATC: -0.215; for GACTACTA: -0.0139.
Turning to CTATAAGC, the “PBM E-score” value was -0.0344.
The same measure for AAGAAAAT: 0.0655.
As for CGCAATCA, the “PBM E-score” value came out at 0.0503.
CAGGTACG: the “PBM E-score” value amounted to 0.0402.
The same measure for GCGCGGAA: 0.137; for CAGGTGTA: -0.0735.
The same measure for GCTGCGTA: -0.0158; for GAGACGCA: -0.166.
With GAAGGGCC, the “PBM E-score” value is -0.00816.
Regarding GTCCAATA, the “PBM E-score” value was -0.0429.
As for CAGTGAAC, the “PBM E-score” value worked out at 0.0317.
The same measure for ACTTTCAA: 0.311; for GTAACCAA: 0.417; for GATAAGAC: -0.049.
The same measure for ACACCGGA: -0.0634.
The same measure for GCCTGCGC: -0.183; for GACGTAAA: -0.0625.
Turning to AGTACCTG, the “PBM E-score” value stood at 0.171.
For the sequence CCATTCTA, the “PBM E-score” value came to 0.147.
The same measure for ACTTCGTG: -0.0575; for TATCGTCA: -0.012; for CGAAAATC: 0.0616.
In the case of AGCTACAT, the “PBM E-score” value was -0.263.
As for ACGCGGCT, the “PBM E-score” value is -0.0407.
The same measure for CGAGATCA: 0.0314; for CCACTCCA: -0.122; for CATTGCCA: -0.112.

Values taken from the supplement of paper PMC3334620.
